The campaign covered roughly 310,000 compounds. About 14,000 (4.5%) showed an effect of 50% or more. The effect is printed as a negative number. The list shows a part of the results.
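Also: peak tail current of the secondary pulse compared with the same well before compound.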

For this assay, the target named is human ether-à-go-go-related gene (hERG) potassium channel (human, UniProt Q12809). Briefly: primary screen, population patch clamp on CHO cells stably expressing hERG.
Sequence of human ether-à-go-go-related gene (hERG) potassium channel (Q12809 whole entry, looked up): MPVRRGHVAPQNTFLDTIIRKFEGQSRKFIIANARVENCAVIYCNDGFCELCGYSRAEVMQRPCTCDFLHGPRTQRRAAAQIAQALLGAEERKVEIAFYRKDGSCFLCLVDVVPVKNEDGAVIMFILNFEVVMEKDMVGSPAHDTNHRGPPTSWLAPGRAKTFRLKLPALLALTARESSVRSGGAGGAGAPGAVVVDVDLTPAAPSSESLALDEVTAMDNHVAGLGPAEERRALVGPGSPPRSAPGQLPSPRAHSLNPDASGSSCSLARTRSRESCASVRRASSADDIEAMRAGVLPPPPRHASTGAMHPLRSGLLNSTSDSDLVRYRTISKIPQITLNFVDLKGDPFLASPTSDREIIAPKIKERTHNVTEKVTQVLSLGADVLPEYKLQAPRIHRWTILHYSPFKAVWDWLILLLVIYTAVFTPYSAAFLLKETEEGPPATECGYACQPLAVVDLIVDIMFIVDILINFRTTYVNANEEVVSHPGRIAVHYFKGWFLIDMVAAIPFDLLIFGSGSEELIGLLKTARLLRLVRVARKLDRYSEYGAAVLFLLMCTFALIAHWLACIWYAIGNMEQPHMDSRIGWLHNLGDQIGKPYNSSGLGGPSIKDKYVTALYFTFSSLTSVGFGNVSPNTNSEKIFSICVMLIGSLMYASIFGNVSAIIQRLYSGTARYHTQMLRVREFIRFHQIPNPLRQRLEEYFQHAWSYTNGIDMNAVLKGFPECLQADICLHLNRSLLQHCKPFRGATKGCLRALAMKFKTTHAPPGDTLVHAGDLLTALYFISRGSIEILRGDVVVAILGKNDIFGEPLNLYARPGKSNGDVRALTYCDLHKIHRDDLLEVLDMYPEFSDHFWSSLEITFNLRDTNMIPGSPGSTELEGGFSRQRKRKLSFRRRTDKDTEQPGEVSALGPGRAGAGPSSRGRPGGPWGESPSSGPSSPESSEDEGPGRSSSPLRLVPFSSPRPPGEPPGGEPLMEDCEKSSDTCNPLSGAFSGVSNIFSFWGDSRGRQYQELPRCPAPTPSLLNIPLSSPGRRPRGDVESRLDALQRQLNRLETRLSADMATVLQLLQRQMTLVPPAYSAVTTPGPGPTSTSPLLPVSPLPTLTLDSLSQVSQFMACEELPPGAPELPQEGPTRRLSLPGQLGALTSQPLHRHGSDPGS
For `C/C(=N\NC(=O)COc1ccc(C(C)(C)C)cc1)c1ccc2c(c1)OCCO2`, the “hERG current change (%, negative = inhibition) at 10uM” value is on record as 17.6%.

As to `O=c1c2c3nc4ccccc4nc3n(/N=C/c3ccncc3)c2ncn1-c1ccccc1`, the “hERG current change (%, negative = inhibition) at 10uM” value is recorded as 2.42%. The same measure for `COc1ccc(-n2nc(C(=O)N(C)C3CCCCC3)c3ccccc3c2=O)c(OC)c1`: 6.22%; for `O=c1cccccc1NN=C1CCCCC1`: 2.31%.

On to `Cc1ccc(-n2c(Cc3ccccc3)nnc2SCC(=O)NNC(=O)Cc2ccccc2)cc1`, for which the “hERG current change (%, negative = inhibition) at 10uM” value is -1.22%. For the compound `N#CC1=C(SCC(=O)Nc2ccc(C(=O)O)cc2)NC(=O)CC1c1ccco1` (stereo not shown), the “hERG current change (%, negative = inhibition) at 10uM” value is given as -4.03%. As for `CCOC(=O)Cc1csc(SCn2nnc3ccccc3c2=O)n1`, the figure is 6.87%; as for `COc1cccc(NC(=O)Nc2ccc3c(c2)N(C)C(=O)CS3)c1`, 2.72%; as for `FC(F)(F)c1cc(-c2cccs2)n[nH]1`, 6.36%. In the case of `O=C1CN(C(=O)COC(=O)CNC(=O)c2ccc(Cl)cc2)c2ccccc2N1`, the “hERG current change (%, negative = inhibition) at 10uM” value is given as -6.75%. For the compound `COC(=O)c1[nH]nc2c1C(=O)N(Cc1ccccc1)C2=O`, the “hERG current change (%, negative = inhibition) at 10uM” value was 10.3%. The same measure for `NS(=O)(=O)c1ccc(CCNCC(=O)NCc2ccccc2Cl)cc1.O=C(O)C(=O)O`: -5.3%. Turning to `CCOc1cc(/C=N/NC(=O)NN(C)c2ncc(C(F)(F)F)cc2Cl)ccc1O`, the “hERG current change (%, negative = inhibition) at 10uM” value was -54.3%. As for `O=C(Nc1ccon1)c1cccc(S(=O)(=O)N2CCCCCC2)c1`, the figure is -4.39%; as for `CCCOc1cccc(C(=O)Nc2ccc(Br)cc2F)c1`, -0.53%. The same measure for `Cn1c(C(=O)N2CCN(c3nc4ccccc4s3)CC2)cc2sccc21`: -8.35%. Regarding `Cc1[nH]c(C)c(S(=O)(=O)NCc2ccc(F)cc2)c1C(=O)N1CCCCC1`, the “hERG current change (%, negative = inhibition) at 10uM” value turned out to be 0.0922%. For the compound `O=C(O)C(Cc1c[nH]c2ccccc12)N1C(=O)C2C3c4ccccc4C(c4ccccc43)C2C1=O` (stereo not shown), the “hERG current change (%, negative = inhibition) at 10uM” value is listed as 36.8%. In the case of `CC(=O)Nc1ccc(/C=N/Nc2nc3ccccc3[nH]2)cc1`, the “hERG current change (%, negative = inhibition) at 10uM” value is 17.9%. For the compound `Cn1c(NCc2c(O)ccc3ccccc23)nc2ccccc21`, the “hERG current change (%, negative = inhibition) at 10uM” value is given as 3.9%. As for `CC1CN(c2nc3ccccn3c(=O)c2C=O)CC(C)O1` (stereo not shown), the figure is 16.2%; as for `COc1ccc(N(CC(=O)NCc2ccco2)S(=O)(=O)c2ccc(C)cc2)cc1`, -25.2%; as for `CSc1cnn(-c2ccccc2)c(=O)c1SC`, 13.9%. The same measure for `COc1ccc(C)cc1S(=O)(=O)N(C)CC(=O)NC1CCCCC1`: 8.63%; for `CN(C)NC1CC(=O)N(c2ccccc2)C1=O` (stereo not shown): 15.9%; for `CCN(CC(=O)Nc1c(F)cccc1F)C(=O)CCc1nc2ccccc2c(=O)[nH]1`: 8.25%. Turning to `O=C(NCCc1ccccc1)N1c2ccccc2Sc2ccccc21`, the “hERG current change (%, negative = inhibition) at 10uM” value is recorded as -2.74%. Take `CCc1ccccc1NC(=O)CN(C)C(=O)Cn1cc(C(F)(F)F)cc(Cl)c1=O`: the “hERG current change (%, negative = inhibition) at 10uM” value was determined as 7.64%. As for `Cn1nnnc1NC(=O)c1ccccc1Cl`, the figure is 14.8%; as for `Cc1nn(C)c(C(=O)Nc2ccn(Cc3c(F)c(F)cc(F)c3F)n2)c1[N+](=O)[O-]`, 4.27%; as for `CN(C(=O)CCNC(=O)Cn1cnc2ccccc2c1=O)c1ccccc1F`, 5.75%. For the compound `O=C(c1ccccc1NS(=O)(=O)c1cccc(C(F)(F)F)c1)N1CCc2ccccc21`, the “hERG current change (%, negative = inhibition) at 10uM” value is reported as 31.8%. For `COc1cc(C(=O)N2CCN(Cc3ccccn3)CC2)cc(OC)c1OC.O=C(O)C(=O)O`, the “hERG current change (%, negative = inhibition) at 10uM” value is listed as 18.9%. As for `O=C(CN1c2cccc3cccc(c23)S1(=O)=O)Nc1ccccc1`, the figure is 24.3%; as for `Cc1csc2nc(CSc3nc4ccccc4o3)cn12`, -11.5%; as for `NS(=O)(=O)c1ccc(CCNC(=O)c2ccc(C(=O)c3ccccc3)cc2)cc1`, 21.4%. The same measure for `COc1ccc(/C=N/NS(=O)(=O)c2ccccc2)cc1OC`: 1.45%. As for `CC(C)Sc1nnc(CNC(=O)C23CC4CC(CC(C4)C2)C3)n1Cc1ccccc1`, the figure is -15.9%; as for `O=C(O)c1ccccc1C(=O)NNc1ccc(Cl)cc1Cl`, 1.56%; as for `CCCCOC(=O)/C(=C/c1cn(C)c2ccccc12)NC(=O)c1ccc(OC)cc1`, -2.29%. As for `CC1=C(C)CC(C(=O)Nc2nccs2)C(C(=O)O)C1` (stereo not shown), the “hERG current change (%, negative = inhibition) at 10uM” value turned out to be 28.7%. As to `Cc1csc(NC(=O)CSCc2c(C)noc2C)n1`, the “hERG current change (%, negative = inhibition) at 10uM” value is on record as -2.35%. Take `Fc1ccc2c(c1)C(c1ccncc1)=NNC(c1cccnc1)=N2`: the “hERG current change (%, negative = inhibition) at 10uM” value was -18.6%. The same measure for `CCOC(=O)c1ccc(N2C(=O)c3n[nH]c(-c4ccco4)c3C2c2cccc([N+](=O)[O-])c2)cc1` (stereo not shown): -13.9%. Take `O=C(CN(c1ccc2c(c1)OCCO2)S(=O)(=O)c1ccccc1)NCc1ccc(Cl)cc1`: the “hERG current change (%, negative = inhibition) at 10uM” value is -6.6%.

As for `O=C(CNC(=O)OCc1ccccc1)NC1CCCCNC1=O` (stereo not shown), the “hERG current change (%, negative = inhibition) at 10uM” value was determined as 16.6%.

As to `COc1ccc(C(=O)Nc2ccc(N3CCN(C(=O)c4ccccc4)CC3)cc2)cc1[N+](=O)[O-]`, the “hERG current change (%, negative = inhibition) at 10uM” value is -67.2%.

For `CCN1CCN(c2cc(C)c3cc(NC(=S)N4CCCCC4)ccc3n2)CC1`, the “hERG current change (%, negative = inhibition) at 10uM” value is reported as -50.1%. Regarding `CC(=O)N1CCN(c2nnc(-c3ccccc3)c3ccccc23)CC1`, the “hERG current change (%, negative = inhibition) at 10uM” value is on record as 3.22%.

Take `NC(=O)CC(NC(=O)c1cccc(Br)c1)c1ccc(N2CCN(c3ccccn3)CC2)c([N+](=O)[O-])c1` (stereo not shown): the “hERG current change (%, negative = inhibition) at 10uM” value came out at 1.19%. Take `CCCCCSc1ncccc1C(=O)O`: the “hERG current change (%, negative = inhibition) at 10uM” value was found to be 21.7%. For the compound `Cc1ccccc1NC(=O)C(C)c1ccc(-c2ccccc2)c(F)c1` (stereo not shown), the “hERG current change (%, negative = inhibition) at 10uM” value is given as -1.3%. As for `Cc1ccc2c(c1)c1c3n2CCN(C(=O)CCl)C3CCC1` (stereo not shown), the figure is -15.1%; as for `NS(=O)(=O)c1ccc(CNC(=O)c2ccc(Cl)cc2[N+](=O)[O-])cc1`, -3.98%. The same measure for `CN(C)c1cccc(C(=O)NC2CCCc3ccccc32)c1` (stereo not shown): 0.528%.

(Values after article PMC4336329 (PLoS ONE, 2015).)
